Results from the supplement of paper PMC10369915.
This is one part of the list. Cut-off read from the data, not from the text of the source: active = 3.2 or more and inactive = the rest. Most of these values are background signal.
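Note: displayed peptides selected on beads carrying the immobilized SH2 domain, with library peptides lacking any tyrosine serving as negative controls.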

What follows are binders tested against SHP2 C-SH2 domain E139D (assay: enrichment score (SH2-bound / input frequency) (ratio); bacterial display of known human phosphotyrosine sites (pTyr-Var adds point mutants) read by sequencing; higher = stronger binding; tyrosines were phosphorylated by kinases first). Details: peptide library: pTyr-Var.
NLTLKYPIEHG [ACTA1_Y71_I66N] was tested, and the enrichment score was inactive: 1.23. With WHHTFYNELRV [ACTA1_Y93] the enrichment score was inactive: 2.61. LTECGYSFTTT [ACTB_Y198_R196C] was tested, and the enrichment score was inactive: 0.853. SLEKSYELLDG [ACTB_Y240_P243L] was tested, and the enrichment score was inactive: 0.658. HNVPICEGFAL [ACTC1_Y168_Y168C_YF] was tested, and the enrichment score was inactive: 0.771. For SLEKGYELPDG [ACTC1_Y242_S241G], the enrichment score was inactive: 0.653. In the case of GGTTMYPGIAD [ACTC1_Y308], the enrichment score is reported as inactive: 0.747. In the case of ISKQGYDEAGP [ACTC1_Y364_E363G], the enrichment score is reported as inactive: 0.577. AVLSLYASGST [ACTG2_Y144_R148S] was tested, and the enrichment score was inactive: 1.07. LTERDYSFVTT [ACTG2_Y199_G198D] was tested, and the enrichment score was inactive: 0.476. In the case of GGSTFYIDTNA [ACTL6A_Y69_P66S_YF], the enrichment score is reported as inactive: 0.967. In the case of PELIDYGKLRK [ACTN1_Y193], the enrichment score is reported as inactive: 0.452. PELIDYGKLWK [ACTN1_Y193_R197W] was tested, and the enrichment score was inactive: 0.873. For NKHTNYTMEHI [ACTN1_Y708], the enrichment score was inactive: 0.773. With SSSNPYSTVTV [ACTN2_Y599_M604V] the enrichment score was inactive: 1.34. With KAIMTYVFSFY [ACTN4_Y260_S262F] the enrichment score was inactive: 1.44. KAIMTYVFSFF [ACTN4_Y260_S262F_YF] was tested, and the enrichment score was inactive: 1.87. In the case of KAIMTYVPSFY [ACTN4_Y260_S262P], the enrichment score is reported as inactive: 0.841. In the case of KAIMTYVPSFF [ACTN4_Y260_S262P_YF], the enrichment score is reported as inactive: 1.05.

Each binder was assayed against SHP2 C-SH2 domain wild-type in the same assay as above. Details: peptide library: pTyr-Var.
NLTLKYPIEHG [ACTA1_Y71_I66N] was tested, and the enrichment score was inactive: 0.965. WHHTFYNELRV [ACTA1_Y93] was tested, and the enrichment score was inactive: 2.83. In the case of LTECGYSFTTT [ACTB_Y198_R196C], the enrichment score is reported as inactive: 0.836. In the case of SLEKSYELLDG [ACTB_Y240_P243L], the enrichment score is reported as inactive: 0.692. For HNVPICEGFAL [ACTC1_Y168_Y168C_YF], the enrichment score was inactive: 1.05. With SLEKGYELPDG [ACTC1_Y242_S241G] the enrichment score was inactive: 0.624. With GGTTMYPGIAD [ACTC1_Y308] the enrichment score was inactive: 0.635. With ISKQGYDEAGP [ACTC1_Y364_E363G] the enrichment score was inactive: 0.507. With AVLSLYASGST [ACTG2_Y144_R148S] the enrichment score was inactive: 1.12. For LTERDYSFVTT [ACTG2_Y199_G198D], the enrichment score was inactive: 0.411. GGSTFYIDTNA [ACTL6A_Y69_P66S_YF] was tested, and the enrichment score was inactive: 0.55. With PELIDYGKLRK [ACTN1_Y193] the enrichment score was inactive: 0.484. In the case of PELIDYGKLWK [ACTN1_Y193_R197W], the enrichment score is reported as inactive: 0.704. NKHTNYTMEHI [ACTN1_Y708] was tested, and the enrichment score was inactive: 0.612. SSSNPYSTVTV [ACTN2_Y599_M604V] was tested, and the enrichment score was active: 3.27. KAIMTYVFSFY [ACTN4_Y260_S262F] was tested, and the enrichment score was inactive: 1.4. In the case of KAIMTYVFSFF [ACTN4_Y260_S262F_YF], the enrichment score is reported as inactive: 2.13. KAIMTYVPSFY [ACTN4_Y260_S262P] was tested, and the enrichment score was inactive: 0.771. In the case of KAIMTYVPSFF [ACTN4_Y260_S262P_YF], the enrichment score is reported as inactive: 1.12.

The binders below were run against SHP2 N-SH2 domain L43F in the same assay as above. Details: peptide library: pTyr-Var.
In the case of NLTLKYPIEHG [ACTA1_Y71_I66N], the enrichment score is reported as inactive: 0.808. For WHHTFYNELRV [ACTA1_Y93], the enrichment score was inactive: 2.57. In the case of LTECGYSFTTT [ACTB_Y198_R196C], the enrichment score is reported as inactive: 0.721. SLEKSYELLDG [ACTB_Y240_P243L] was tested, and the enrichment score was inactive: 0.8. In the case of HNVPICEGFAL [ACTC1_Y168_Y168C_YF], the enrichment score is reported as inactive: 0.837. With SLEKGYELPDG [ACTC1_Y242_S241G] the enrichment score was inactive: 0.729. GGTTMYPGIAD [ACTC1_Y308] was tested, and the enrichment score was inactive: 0.684. With ISKQGYDEAGP [ACTC1_Y364_E363G] the enrichment score was inactive: 0.619. With AVLSLYASGST [ACTG2_Y144_R148S] the enrichment score was inactive: 1.01. LTERDYSFVTT [ACTG2_Y199_G198D] was tested, and the enrichment score was inactive: 0.432. GGSTFYIDTNA [ACTL6A_Y69_P66S_YF] was tested, and the enrichment score was inactive: 0.683. For PELIDYGKLRK [ACTN1_Y193], the enrichment score was inactive: 0.552. For PELIDYGKLWK [ACTN1_Y193_R197W], the enrichment score was inactive: 0.808. With NKHTNYTMEHI [ACTN1_Y708] the enrichment score was inactive: 0.696. For SSSNPYSTVTV [ACTN2_Y599_M604V], the enrichment score was inactive: 0.804. With KAIMTYVFSFY [ACTN4_Y260_S262F] the enrichment score was inactive: 0.898. KAIMTYVFSFF [ACTN4_Y260_S262F_YF] was tested, and the enrichment score was inactive: 1.91. KAIMTYVPSFY [ACTN4_Y260_S262P] was tested, and the enrichment score was inactive: 0.893. In the case of KAIMTYVPSFF [ACTN4_Y260_S262P_YF], the enrichment score is reported as inactive: 0.986.

Each binder was assayed against SHP2 N-SH2 domain T42A in the same assay as above. Details: peptide library: pTyr-Var.
In the case of NLTLKYPIEHG [ACTA1_Y71_I66N], the enrichment score is reported as inactive: 0.978. In the case of WHHTFYNELRV [ACTA1_Y93], the enrichment score is reported as inactive: 2.58. With LTECGYSFTTT [ACTB_Y198_R196C] the enrichment score was inactive: 0.737. In the case of SLEKSYELLDG [ACTB_Y240_P243L], the enrichment score is reported as inactive: 0.639. HNVPICEGFAL [ACTC1_Y168_Y168C_YF] was tested, and the enrichment score was inactive: 0.889. SLEKGYELPDG [ACTC1_Y242_S241G] was tested, and the enrichment score was inactive: 0.475. For GGTTMYPGIAD [ACTC1_Y308], the enrichment score was inactive: 0.679. ISKQGYDEAGP [ACTC1_Y364_E363G] was tested, and the enrichment score was inactive: 0.672. With AVLSLYASGST [ACTG2_Y144_R148S] the enrichment score was inactive: 0.968. For LTERDYSFVTT [ACTG2_Y199_G198D], the enrichment score was inactive: 0.465. GGSTFYIDTNA [ACTL6A_Y69_P66S_YF] was tested, and the enrichment score was inactive: 1.22. PELIDYGKLRK [ACTN1_Y193] was tested, and the enrichment score was inactive: 0.375. In the case of PELIDYGKLWK [ACTN1_Y193_R197W], the enrichment score is reported as inactive: 1.03. With NKHTNYTMEHI [ACTN1_Y708] the enrichment score was inactive: 0.454. For SSSNPYSTVTV [ACTN2_Y599_M604V], the enrichment score was inactive: 1.57. With KAIMTYVFSFY [ACTN4_Y260_S262F] the enrichment score was inactive: 1.02. With KAIMTYVFSFF [ACTN4_Y260_S262F_YF] the enrichment score was inactive: 1.25. For KAIMTYVPSFY [ACTN4_Y260_S262P], the enrichment score was inactive: 0.828. With KAIMTYVPSFF [ACTN4_Y260_S262P_YF] the enrichment score was inactive: 0.976.

The binders below were run against SHP2 N-SH2 domain T52S in the same assay as above. Details: peptide library: pTyr-Var.
For NLTLKYPIEHG [ACTA1_Y71_I66N], the enrichment score was inactive: 0.864. With WHHTFYNELRV [ACTA1_Y93] the enrichment score was inactive: 2.59. For LTECGYSFTTT [ACTB_Y198_R196C], the enrichment score was inactive: 0.547. For SLEKSYELLDG [ACTB_Y240_P243L], the enrichment score was inactive: 0.607. For HNVPICEGFAL [ACTC1_Y168_Y168C_YF], the enrichment score was inactive: 0.83. In the case of SLEKGYELPDG [ACTC1_Y242_S241G], the enrichment score is reported as inactive: 0.518. For GGTTMYPGIAD [ACTC1_Y308], the enrichment score was inactive: 0.66. In the case of ISKQGYDEAGP [ACTC1_Y364_E363G], the enrichment score is reported as inactive: 0.785. In the case of AVLSLYASGST [ACTG2_Y144_R148S], the enrichment score is reported as inactive: 1.03. In the case of LTERDYSFVTT [ACTG2_Y199_G198D], the enrichment score is reported as inactive: 0.359. GGSTFYIDTNA [ACTL6A_Y69_P66S_YF] was tested, and the enrichment score was inactive: 0.746. With PELIDYGKLRK [ACTN1_Y193] the enrichment score was inactive: 0.499. For PELIDYGKLWK [ACTN1_Y193_R197W], the enrichment score was inactive: 0.758. In the case of NKHTNYTMEHI [ACTN1_Y708], the enrichment score is reported as inactive: 0.588. With SSSNPYSTVTV [ACTN2_Y599_M604V] the enrichment score was inactive: 0.663. For KAIMTYVFSFY [ACTN4_Y260_S262F], the enrichment score was inactive: 1.24. KAIMTYVFSFF [ACTN4_Y260_S262F_YF] was tested, and the enrichment score was inactive: 1.87. For KAIMTYVPSFY [ACTN4_Y260_S262P], the enrichment score was inactive: 0.852. In the case of KAIMTYVPSFF [ACTN4_Y260_S262P_YF], the enrichment score is reported as inactive: 1.03.

The binders below were run against SHP2 N-SH2 domain wild-type in the same assay as above. Details: peptide library: pTyr-Var.
For NLTLKYPIEHG [ACTA1_Y71_I66N], the enrichment score was inactive: 0.919. For WHHTFYNELRV [ACTA1_Y93], the enrichment score was inactive: 2.56. With LTECGYSFTTT [ACTB_Y198_R196C] the enrichment score was inactive: 0.853. In the case of SLEKSYELLDG [ACTB_Y240_P243L], the enrichment score is reported as inactive: 0.694. HNVPICEGFAL [ACTC1_Y168_Y168C_YF] was tested, and the enrichment score was inactive: 1.19. In the case of SLEKGYELPDG [ACTC1_Y242_S241G], the enrichment score is reported as inactive: 0.579. With GGTTMYPGIAD [ACTC1_Y308] the enrichment score was inactive: 0.728. With ISKQGYDEAGP [ACTC1_Y364_E363G] the enrichment score was inactive: 0.72. AVLSLYASGST [ACTG2_Y144_R148S] was tested, and the enrichment score was inactive: 1.11. In the case of LTERDYSFVTT [ACTG2_Y199_G198D], the enrichment score is reported as inactive: 0.62. For GGSTFYIDTNA [ACTL6A_Y69_P66S_YF], the enrichment score was inactive: 0.859. In the case of PELIDYGKLRK [ACTN1_Y193], the enrichment score is reported as inactive: 0.487. For PELIDYGKLWK [ACTN1_Y193_R197W], the enrichment score was inactive: 0.717. In the case of NKHTNYTMEHI [ACTN1_Y708], the enrichment score is reported as inactive: 0.699. With SSSNPYSTVTV [ACTN2_Y599_M604V] the enrichment score was inactive: 0.649. KAIMTYVFSFY [ACTN4_Y260_S262F] was tested, and the enrichment score was inactive: 1.72. For KAIMTYVFSFF [ACTN4_Y260_S262F_YF], the enrichment score was inactive: 1.59. In the case of KAIMTYVPSFY [ACTN4_Y260_S262P], the enrichment score is reported as inactive: 0.8. In the case of KAIMTYVPSFF [ACTN4_Y260_S262P_YF], the enrichment score is reported as inactive: 1.04.
